The results in this text go back to PubChem BioAssay AID1434 (Sanford-Burnham Center for Chemical Genomics, 2008).

Each structure is given as a SMILES string. Some of the results follow. Further columns of the screen follow, without active or inactive calls. The list favours compounds with an active or inconclusive main result.

The target of this test is Runt-related transcription factor 1 (Homo sapiens) + Core-binding factor subunit beta (Homo sapiens) (UniProt Q01196+Q13951). As to the kind of experiment: inhibitors of RUNX1 Runt–CBFb-SMMHC binding, primary screen, biochemical, FRET, Cerulean-Runt, Venus-CBFb-SMMHC, uHTS (AID 1434).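 Note: 0% = DMSO wells and 100% = wells with excess untagged CBFb-SMMHC; inhibitors lower the FRET ratio by blocking Runt binding to CBFb-SMMHC.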 Particulars: Cerulean-Runt/Venus-CBFb-SMMHC FRET ratio 530/480, 1 h; retest duplicate average; at 20 µM; stronger effect = higher value.
Chain of UniProt Q01196 (Q01196 whole entry, looked up): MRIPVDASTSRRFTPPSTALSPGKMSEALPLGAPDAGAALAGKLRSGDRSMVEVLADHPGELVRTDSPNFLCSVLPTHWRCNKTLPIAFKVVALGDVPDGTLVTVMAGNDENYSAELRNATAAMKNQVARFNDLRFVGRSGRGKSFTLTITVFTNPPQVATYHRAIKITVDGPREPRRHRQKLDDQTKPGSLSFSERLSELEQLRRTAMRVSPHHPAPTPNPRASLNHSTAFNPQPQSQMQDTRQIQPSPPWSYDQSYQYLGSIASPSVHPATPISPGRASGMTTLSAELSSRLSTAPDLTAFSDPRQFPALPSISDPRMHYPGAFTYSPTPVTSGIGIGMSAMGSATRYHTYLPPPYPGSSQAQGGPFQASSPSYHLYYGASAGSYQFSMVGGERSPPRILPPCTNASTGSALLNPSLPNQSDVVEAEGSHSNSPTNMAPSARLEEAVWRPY
Chain of UniProt Q01196 (Q13951 whole entry, looked up): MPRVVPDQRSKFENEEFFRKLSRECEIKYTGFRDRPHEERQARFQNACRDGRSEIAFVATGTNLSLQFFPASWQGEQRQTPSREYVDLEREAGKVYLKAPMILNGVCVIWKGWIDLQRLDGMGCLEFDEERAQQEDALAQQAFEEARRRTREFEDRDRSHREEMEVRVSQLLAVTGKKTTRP
What is called inhibition is the change of the read-out against control, counted positive when it falls. On to `CCOC(=O)/C(O)=C(\C#N)c1nc2ccccc2[nH]1`, for which the inhibition stood at 99.6%.

For the compound `O=c1c(O)c(-c2cccs2)oc2ccccc12`, the inhibition was 71.5%.

For the compound `Cc1c(O)ccc2c(CN(C)Cc3ccccc3)cc(=O)oc12`, the inhibition is 70.6%.

Regarding `COc1ccccc1-n1c(-c2ccccc2)c[nH]c1=S`, the inhibition came to 56.5%.

Take `O=C(NC(Cc1ccccc1)C(=O)Oc1ccc2c(C(F)(F)F)cc(=O)oc2c1)OCc1ccccc1` (stereo not given): the inhibition stood at 71.5%.

On to `Cc1c(C)c2cc(Cl)c(O)c(CN(C)C)c2oc1=O`, for which the inhibition amounted to 170%.

In the case of `CCCCC1C(C#N)=C(C)NC2=C1C(=O)CC(C)(C)C2` (stereo not given), the inhibition came out at 80.8%.

For the compound `CSCCC(NC(C)=O)C(=O)Oc1ccc2c3c(c(=O)oc2c1)CCCC3` (stereo not given), the inhibition came out at 81.3%.

Regarding `Cn1c(C(=O)N2CCc3ccccc3C2)cc2c(=O)n3ccccc3nc21`, the inhibition is 57.9%.

As to `CC(NC(=O)OCc1ccccc1)C(=O)Oc1cc2oc(=O)cc(-c3ccccc3)c2cc1Cl` (stereo not given), the inhibition amounted to 64.9%.

Turning to `Cc1cccn2c(=O)c3cc(C(=O)NCCc4ccccc4)c(=N)n(CCCn4ccnc4)c3nc12`, the inhibition was 72.9%.

Consider `Cc1ccc(N=Cc2cc3c(cc2O)OC(N)=C(C#N)C3c2ccccc2)cc1` (stereo not given), for which the inhibition came to 98.4%.

For `Cc1c(Cl)sn(-c2ccc(Cl)cc2)c1=O`, the inhibition is 52.4%.

Turning to `CCCn1nc(NC(=O)c2cccs2)c2cc3cccc(C)c3nc21`, the inhibition was found to be 101%.

Consider `CCOC(=O)c1cc(C(=O)OCC)c2ccccn2c1=O`, for which the inhibition amounted to 71.5%.

Take `CN1CCc2c(sc3c2C(=O)NC(c2cccs2)N3)C1` (stereo not given): the inhibition turned out to be 130%.

As to `Cc1ccc(S(=O)(=O)NC(C(=O)Oc2ccc3ccc(=O)oc3c2)c2ccccc2)cc1` (stereo not given), the inhibition came out at 144%.

As for `CN1CCc2c(sc3c2C(=O)NC(c2ccc(-c4cccc(Cl)c4)o2)N3)C1` (stereo not given), the inhibition came out at 135%.

As to `Nc1cccc2c1C(=O)N(C(=O)c1ccc(S(=O)(=O)N3CCCCCC3)cc1)C2=O`, the inhibition turned out to be 72.9%.

With `CC1=C(C#N)C(=O)OC(C)(C)C1`, the inhibition was 60.1%.

Take `O=c1[nH]c2cc3c(cc2cc1CN(CCc1ccccc1)Cc1nnnn1CC1CCCO1)OCO3` (stereo not given): the inhibition turned out to be 72.9%.

In the case of `Nc1c(C(=O)NC2CCCCC2)c2nc3ccccc3nc2n1/N=C/c1ccco1`, the inhibition amounted to 85%.

Take `Cc1cc(Nc2ccccc2)nc2cc(O)ccc12`: the inhibition turned out to be 88.2%.

`COc1ccc2c(C#N)c3ccccn3c2c1`: the inhibition came to 70.6%.

Turning to `CN1CC=C2C(C#N)=C(N)C(C#N)(C#N)[C@H](c3cccc(Cl)c3)C2C1` (stereo not given in full), the inhibition was found to be 86.4%.

Take `O=C(c1ccccc1)c1ccccc1N1C(=O)C=CC1=O`: the inhibition was 66%.

`Nc1cccc2c1C(=O)N(C(=O)c1ccc(Cl)c(S(=O)(=O)N3CCCCCC3)c1)C2=O`: the inhibition turned out to be 72.9%.

With `Cc1nc2[nH]c(=O)c3c(n2n1)NC1=C(C(=O)CC(C)(C)C1)C3c1ccc(F)cc1` (stereo not given), the inhibition came out at 158%.

Take `N#Cc1c(N)n(CCCN2CCOCC2)c2nc3ccccc3nc12`: the inhibition was determined as 142%.

In the case of `CC(=O)c1c(N2CCN(C)CC2)nc(=S)n(-c2cc(C)ccc2C)c1C`, the inhibition worked out at 73.2%.
